IC50 is the fitted dose that halves viability relative to control wells, and lower means more sensitive; a fit beyond the top or the lowest dose is shown as a bound at that dose. AUC is the area under the same curve over the 256-fold range up to the top dose, as a fraction; the more sensitive the line, the further below 1. The top dose, if marked as inferred, comes from the curve model; the source does not state it.
Columns and labels:
SB590885 = compound: CN(C)CCOc1ccc(-c2nc(-c3ccncc3)c(-c3ccc4c(c3)CC/C4=N\O)[nH]2)cc1 [SB590885]; assay: Viability of human cancer cell lines after 72 h of drug (GDSC screen); settings: top dose 5 µM; top dose inferred
Description: (§1)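 Human cancer cell lines in 384-well plates, medium with 10% serum, drug for 72 h over a 256-fold dose range (nine 2-fold or five 4-fold steps up to the top dose). Adherent lines were fixed and stained with the nucleic acid dye Syto60, suspension lines read with resazurin; signal relative to control wells, capped at 0 and 100%. One two-parameter sigmoid per drug and line, fitted in a mixed model over all curves with the slope shared within a line.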

PD-173074 = compound: CCN(CC)CCCCNc1ncc2cc(-c3cc(OC)cc(OC)c3)c(NC(=O)NC(C)(C)C)nc2n1 [PD-173074]; assay: as above; settings: top dose 2 µM; top dose inferred
Description: as §1

Cell Line: SU-DHL-5 (B-cell lymphoma, suspension)
- AUC (SB590885): 0.983
- IC50 (SB590885): > 5000 nM
- AUC (PD-173074): 0.99
- IC50 (PD-173074): > 2000 nM

Cell Line: SU-DHL-10 (B-cell lymphoma, suspension)
- AUC (SB590885): 0.996
- IC50 (SB590885): > 5000 nM
- AUC (PD-173074): 0.997
- IC50 (PD-173074): > 2000 nM

Cell Line: SUIT-2 (pancreas, adherent)
- AUC (SB590885): 0.983
- IC50 (SB590885): > 5000 nM
- AUC (PD-173074): 0.954
- IC50 (PD-173074): > 2000 nM

Cell Line: SUP-B8 (B-cell leukaemia, suspension)
- AUC (SB590885): 0.989
- IC50 (SB590885): > 5000 nM
- AUC (PD-173074): 0.955
- IC50 (PD-173074): > 2000 nM

Cell Line: SW48 (large intestine, adherent)
- AUC (SB590885): 0.987
- IC50 (SB590885): > 5000 nM
- AUC (PD-173074): 0.976
- IC50 (PD-173074): > 2000 nM

Cell Line: SW620 (large intestine, adherent)
- AUC (SB590885): 0.99
- IC50 (SB590885): > 5000 nM
- AUC (PD-173074): 0.99
- IC50 (PD-173074): > 2000 nM

Cell Line: SW626 (ovary, adherent)
- AUC (SB590885): 0.978
- IC50 (SB590885): > 5000 nM
- AUC (PD-173074): 0.984
- IC50 (PD-173074): > 2000 nM

Cell Line: SW756 (cervix, adherent)
- AUC (SB590885): 0.983
- IC50 (SB590885): > 5000 nM
- AUC (PD-173074): 0.983
- IC50 (PD-173074): > 2000 nM

Cell Line: SW780 (bladder, adherent)
- AUC (SB590885): 0.983
- IC50 (SB590885): > 5000 nM
- AUC (PD-173074): 0.871
- IC50 (PD-173074): > 2000 nM

Cell Line: SW900 (lung squamous cell carcinoma, adherent)
- AUC (SB590885): 0.983
- IC50 (SB590885): > 5000 nM
- AUC (PD-173074): 0.954
- IC50 (PD-173074): > 2000 nM

Cell Line: SW948 (large intestine, adherent)
- AUC (SB590885): 0.894
- IC50 (SB590885): > 5000 nM
- AUC (PD-173074): 0.918
- IC50 (PD-173074): > 2000 nM

Cell Line: SW982 (soft tissue, adherent)
- AUC (SB590885): 0.891
- IC50 (SB590885): > 5000 nM
- AUC (PD-173074): 0.982
- IC50 (PD-173074): > 2000 nM

Cell Line: SW1271 (small cell lung carcinoma, adherent)
- AUC (SB590885): 0.906
- IC50 (SB590885): > 5000 nM
- AUC (PD-173074): 0.969
- IC50 (PD-173074): > 2000 nM

Cell Line: SW1417 (large intestine, adherent)
- AUC (SB590885): 0.969
- IC50 (SB590885): > 5000 nM
- AUC (PD-173074): 0.986
- IC50 (PD-173074): > 2000 nM

Cell Line: SW1573 (lung adenocarcinoma, adherent)
- AUC (SB590885): 0.959
- IC50 (SB590885): > 5000 nM
- AUC (PD-173074): 0.97
- IC50 (PD-173074): > 2000 nM

Cell Line: SW1710 (bladder, adherent)
- AUC (SB590885): 0.973
- IC50 (SB590885): > 5000 nM
- AUC (PD-173074): 0.961
- IC50 (PD-173074): > 2000 nM

Cell Line: SW1783 (glioma, adherent)
- AUC (SB590885): 0.987
- IC50 (SB590885): > 5000 nM
- AUC (PD-173074): 0.983
- IC50 (PD-173074): > 2000 nM

Cell Line: Saos-2 (osteosarcoma, adherent)
- AUC (SB590885): 0.952
- IC50 (SB590885): > 5000 nM
- AUC (PD-173074): 0.976
- IC50 (PD-173074): > 2000 nM

Cell Line: SiHa (cervix, adherent)
- AUC (SB590885): 0.987
- IC50 (SB590885): > 5000 nM
- AUC (PD-173074): 0.986
- IC50 (PD-173074): > 2000 nM

Cell Line: T47D (breast, adherent)
- AUC (SB590885): 0.978
- IC50 (SB590885): > 5000 nM
- AUC (PD-173074): 0.977
- IC50 (PD-173074): > 2000 nM

Cell Line: T84 (large intestine, adherent)
- AUC (SB590885): 0.989
- IC50 (SB590885): > 5000 nM
- AUC (PD-173074): 0.989
- IC50 (PD-173074): > 2000 nM

Cell Line: T98G (glioma, adherent)
- AUC (SB590885): 0.99
- IC50 (SB590885): > 5000 nM
- AUC (PD-173074): 0.969
- IC50 (PD-173074): > 2000 nM

Cell Line: T-T (oesophagus, adherent)
- AUC (SB590885): 0.966
- IC50 (SB590885): > 5000 nM
- AUC (PD-173074): 0.987
- IC50 (PD-173074): > 2000 nM

Cell Line: TCCSUP (bladder, adherent)
- AUC (SB590885): 0.984
- IC50 (SB590885): > 5000 nM
- AUC (PD-173074): 0.956
- IC50 (PD-173074): > 2000 nM

Cell Line: TE-11 (oesophagus, adherent)
- AUC (SB590885): 0.99
- IC50 (SB590885): > 5000 nM
- AUC (PD-173074): 0.988
- IC50 (PD-173074): > 2000 nM

Cell Line: TGBC11TKB (stomach, adherent)
- AUC (SB590885): 0.992
- IC50 (SB590885): > 5000 nM
- AUC (PD-173074): 0.991
- IC50 (PD-173074): > 2000 nM

Cell Line: TMK-1 (stomach, adherent)
- AUC (SB590885): 0.986
- IC50 (SB590885): > 5000 nM
- AUC (PD-173074): 0.986
- IC50 (PD-173074): > 2000 nM

Cell Line: TOV-21G (ovary, adherent)
- AUC (SB590885): 0.962
- IC50 (SB590885): > 5000 nM
- AUC (PD-173074): 0.958
- IC50 (PD-173074): > 2000 nM

Cell Line: TOV-112D (ovary, adherent)
- AUC (SB590885): 0.946
- IC50 (SB590885): > 5000 nM
- AUC (PD-173074): 0.927
- IC50 (PD-173074): > 2000 nM

Cell Line: TT2609-C02 (thyroid, adherent)
- AUC (SB590885): 0.916
- IC50 (SB590885): > 5000 nM
- AUC (PD-173074): 0.96
- IC50 (PD-173074): > 2000 nM

Cell Line: TT (thyroid, adherent)
- AUC (SB590885): 0.974
- IC50 (SB590885): > 5000 nM
- AUC (PD-173074): 0.979
- IC50 (PD-173074): > 2000 nM

Cell Line: TYK-nu (ovary, adherent)
- AUC (SB590885): 0.772
- IC50 (SB590885): 2060 nM
- AUC (PD-173074): 0.954
- IC50 (PD-173074): > 2000 nM

Cell Line: U031 (kidney, adherent)
- AUC (SB590885): 0.981
- IC50 (SB590885): > 5000 nM
- AUC (PD-173074): 0.95
- IC50 (PD-173074): > 2000 nM

Cell Line: U-118-MG (glioma, adherent)
- AUC (SB590885): 0.986
- IC50 (SB590885): > 5000 nM
- AUC (PD-173074): 0.985
- IC50 (PD-173074): > 2000 nM

Cell Line: U-266 (myeloma, semi-adherent)
- AUC (SB590885): 0.952
- IC50 (SB590885): > 5000 nM
- AUC (PD-173074): 0.973
- IC50 (PD-173074): > 2000 nM

Cell Line: UACC-62 (melanoma, adherent)
- AUC (SB590885): 0.983
- IC50 (SB590885): > 5000 nM
- AUC (PD-173074): 0.986
- IC50 (PD-173074): > 2000 nM

Cell Line: UWB1.289 (ovary, adherent)
- AUC (SB590885): 0.979
- IC50 (SB590885): > 5000 nM
- AUC (PD-173074): 0.972
- IC50 (PD-173074): > 2000 nM

Cell Line: VM-CUB-1 (bladder, adherent)
- AUC (SB590885): 0.976
- IC50 (SB590885): > 5000 nM
- AUC (PD-173074): 0.985
- IC50 (PD-173074): > 2000 nM

Cell Line: VMRC-LCD (lung adenocarcinoma, adherent)
- AUC (SB590885): 0.99
- IC50 (SB590885): > 5000 nM
- AUC (PD-173074): 0.992
- IC50 (PD-173074): > 2000 nM

Cell Line: VMRC-RCZ (kidney, adherent)
- AUC (SB590885): 0.984
- IC50 (SB590885): > 5000 nM
- AUC (PD-173074): 0.956
- IC50 (PD-173074): > 2000 nM

Cell Line: WM35 (melanoma, adherent)
- AUC (SB590885): 0.81
- IC50 (SB590885): 2660 nM
- AUC (PD-173074): 0.984
- IC50 (PD-173074): > 2000 nM

Cell Line: WM793B (melanoma, adherent)
- AUC (SB590885): 0.881
- IC50 (SB590885): > 5000 nM
- AUC (PD-173074): 0.984
- IC50 (PD-173074): > 2000 nM

Cell Line: WM1552C (melanoma, adherent)
- AUC (SB590885): 0.936
- IC50 (SB590885): > 5000 nM
- AUC (PD-173074): 0.988
- IC50 (PD-173074): > 2000 nM

Cell Line: WM-115 (melanoma, adherent)
- AUC (SB590885): 0.625
- IC50 (SB590885): 746 nM
- AUC (PD-173074): 0.941
- IC50 (PD-173074): > 2000 nM

Cell Line: YAPC (pancreas, adherent)
- AUC (SB590885): 0.982
- IC50 (SB590885): > 5000 nM
- AUC (PD-173074): 0.984
- IC50 (PD-173074): > 2000 nM

Cell Line: YH-13 (glioma, adherent)
- AUC (SB590885): 0.986
- IC50 (SB590885): > 5000 nM
- AUC (PD-173074): 0.946
- IC50 (PD-173074): > 2000 nM

Cell Line: YKG-1 (glioma, adherent)
- AUC (SB590885): 0.975
- IC50 (SB590885): > 5000 nM
- AUC (PD-173074): 0.958
- IC50 (PD-173074): > 2000 nM

Cell Line: ZR-75-30 (breast, adherent)
- AUC (SB590885): 0.983
- IC50 (SB590885): > 5000 nM
- AUC (PD-173074): 0.983
- IC50 (PD-173074): > 2000 nM

Cell Line: huH-1 (liver, adherent)
- AUC (SB590885): 0.978
- IC50 (SB590885): > 5000 nM
- AUC (PD-173074): 0.975
- IC50 (PD-173074): > 2000 nM

From the supplement of paper PMC4967469
